Results on 83 variants are retold here after the RNAGym collection of RNA variant scans (doi:10.1093/nar/gkz1192).

To fix the notation:
B1: CPEB3 Ribozyme (parent)
chain: UAACAGGGGGCCACAGCAGAAGCGUUCACGUCGCAGCCCCUGUCAGAUUCUGGUGAAUCUGCGAAUUCUGCUGUAUAUCUC

The source gives no read counts; variants with many changes may rest on few reads.

Variants of B1 are the subject of the data set. The data set is described as follows: self-cleavage, relative activity (ratio to wild type); higher = more cleavage; in vitro, sequencing. A digest of the protocol:
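CPEB3 self-cleaving ribozyme mutant libraries were made by rounds of error-prone PCR, barcoded, and transcribed in vitro with T7 RNA polymerase for 5 hours at 37°C. Cleavage occurred during transcription and a 15 min DNase I step before EDTA stop. RNAs were reverse transcribed with template switching and Illumina-sequenced, with DNA sequencing mapping barcodes to variants. Relative activity is the variant's cleaved/total read fraction divided by wild type's (minimum 5 reads), averaged across three batches.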
A20U A21G U31C: the self-cleavage was 0.17.

For A20G U25A U41C U80C, the self-cleavage stood at 0.19.

As to A20U A35U A47G U69A, the self-cleavage stood at 0.13.

For the variant A20G U72G A77U, the self-cleavage is 0.35.

On to A20U U49A U54C U66C, for which the self-cleavage stood at 0.13.

In the case of A20U U41G A57G U60A, the self-cleavage came to 0.06.

As for A20G U67C U69A, the self-cleavage turned out to be 0.67.

Turning to A21G A28C C32G A45C, the self-cleavage came to 0.2.

Regarding A20G A56U U69C, the self-cleavage worked out at 0.35.

For A20G C29A C38U U54A U69C, the self-cleavage was determined as 0.06.

In the case of A20U G52A C81U, the self-cleavage is 0.5.

Consider A20G U43C A65C U78C, for which the self-cleavage was found to be 0.15.

On to A20G U26C A28U U58C U76A A77U, for which the self-cleavage was 0.16.

In the case of A20G U43C C50A G61A U74A, the self-cleavage was 0.07.

Turning to A20G U43C A45G, the self-cleavage was 0.28.

As to A20G U41A U74A, the self-cleavage is 0.23.

A20G U26A U49C: the self-cleavage was 0.4.

For A20G U26C A45G U67A, the self-cleavage came to 0.11.

As to A21C A45U A57G, the self-cleavage is 0.14.

Regarding A20U A35U A56G U74A, the self-cleavage stood at 0.05.

For the variant A20U U25C U66C U74C, the self-cleavage stood at 0.18.

On to A21C A35G C40A, for which the self-cleavage came to 0.21.

For A20U U49C U60A U72A, the self-cleavage came to 0.1.

Regarding A21G A28G A57U U69A, the self-cleavage came out at 0.06.

As to A20G U60C U72C U80C, the self-cleavage was 0.31.

A21G A35U U48C A64G: the self-cleavage came to 0.07.

As to A20U C38U U43C U72C A77G, the self-cleavage is 0.07.

Consider A20U U25C U26A C50U A57U, for which the self-cleavage came out at 0.06.

Consider A20G C29G U54G G55U U74C U76C, for which the self-cleavage stood at 0.33.

Consider A20G U25C U31A A35U A47G, for which the self-cleavage was found to be 0.07.

As for A20G U43C U60C U69A U80C, the self-cleavage was determined as 0.07.

For the variant A20G U26C G46C U54A U69C A75G U76G, the self-cleavage amounted to 0.15.

Consider A20U U78C U80A, for which the self-cleavage was determined as 0.26.

Regarding A20U A21G A28G A77G, the self-cleavage was 0.18.

As to A20G C23U A57G, the self-cleavage was 0.53.

For the variant A20G U26A A45G U67C, the self-cleavage was determined as 0.59.

For A21G A35G U78A, the self-cleavage worked out at 1.44.

Take A20G U43A A57G: the self-cleavage stood at 0.72.

Turning to A20G G33U U48A, the self-cleavage came out at 0.19.

With A20U U51A U69C, the self-cleavage is 0.13.

For A20G U26C U43C, the self-cleavage was 0.52.

On to A20G U72A A75U U78C, for which the self-cleavage is 0.97.

For A20U A28G U51C U69C A75C, the self-cleavage turned out to be 0.1.

For A21G A28G C40U U43C U49C C79G, the self-cleavage is 0.01.

As for A20G U74C A75C, the self-cleavage was determined as 1.2.

Regarding A20G U25C U48C A77G U78A, the self-cleavage worked out at 0.17.

With A20G G22U U51C, the self-cleavage came to 0.07.

Turning to A20G G46A A64G U74C, the self-cleavage stood at 0.16.

As to A20G C39A U54A A56G U78C, the self-cleavage came out at 0.18.

As for A20G U48C A57G U76C, the self-cleavage came out at 1.08.

Take A20U U41A A56G: the self-cleavage worked out at 0.18.

Turning to A20G U31C U54C U66C, the self-cleavage is 0.09.

In the case of A21C A56G U69A U80C, the self-cleavage is 0.11.

Turning to A20G U43C U60C A64G U72C A75U, the self-cleavage turned out to be 0.08.

On to A20G C32U U49C U78C, for which the self-cleavage turned out to be 0.3.

Take A20G U26A U41C G42C U80C: the self-cleavage came out at 0.36.

For the variant A20U C39U A47G G53A C62U, the self-cleavage amounted to 0.17.

For the variant A20U U43A G52A, the self-cleavage is 0.49.

In the case of A20U A45U U66C U80C, the self-cleavage amounted to 0.09.

As for A20U U41A U49A U51C, the self-cleavage stood at 0.05.

A20G U31A A47G C50A A75G: the self-cleavage is 0.12.

Turning to A20G U41C A56G, the self-cleavage is 0.62.

Consider A20G A57G U60C U67C, for which the self-cleavage is 0.27.

In the case of A20G C39A U54A U66C, the self-cleavage turned out to be 0.06.

For the variant A21C U26A G36U U41C, the self-cleavage came to 0.12.

Turning to A20U U31C G63A U80A, the self-cleavage came out at 0.09.

As to A20U U31C A35G U60A C62U, the self-cleavage came out at 0.18.

Turning to A20U U43C A56G A57G, the self-cleavage was found to be 0.09.

As to A20G U51A A75G, the self-cleavage amounted to 0.53.

Regarding A20G U41G A45G U58C U66C, the self-cleavage was 0.26.

For A20U A28U U31A, the self-cleavage stood at 0.19.

Regarding A20G U60A C68A U69C, the self-cleavage came out at 0.09.

Consider A20G U49A U58C A77G, for which the self-cleavage is 0.07.

With A20G C39A U54C U74C, the self-cleavage came out at 0.11.

With A20G A57G U69A, the self-cleavage is 0.26.

Turning to A21G A35G A56G U72C, the self-cleavage stood at 1.04.

As to A20G U25A G33A A35C G42A U80G, the self-cleavage amounted to 0.19.

In the case of A20G U31A G73C, the self-cleavage stood at 0.92.

With A20G C34U U43A, the self-cleavage was found to be 0.27.

Consider A20G U26C U41A U66C U78C, for which the self-cleavage amounted to 0.1.

For the variant A20G U51C U60C A75U, the self-cleavage is 0.18.

A20U A21G A45C U51G G55A U58C U74A: the self-cleavage was 0.04.

Take A20G U26C A45G U69A C71U U74C U76C: the self-cleavage was 0.03.
